Sequences with one replicate were seen in a single cluster, so their values are uncertain.
tested on: ATP; assay: switch fluorescence ratio, 500 uM ATP over buffer (Cy3 cluster intensity, sum of 5 cycles each) (fold (ratio)); higher = stronger signal-on switching upon ATP binding; sequences stand for … in TCGTCGGCAGCGTCAGATGTGTATAAGAGACAGTTTTTTTTTTTTTTTTTTTTTTTTT…TC; details: aptamer strand: ATP DNA aptamer (quencher-CACCTGGGGGAGTATTGCGGAGGAAGG + anchor), 100 nM annealed; ATP concentration: 500 uM; one replicate
How it was run: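 Imaging in selection buffer was followed by imaging after 15 min with 500 uM ATP at 22 °C, for Cy3-labelled switching-strand clusters annealed to 100 nM quencher-labelled ATP aptamer on a modified Illumina MiSeq flow-cell. Five of these buffer/ATP cycles ran, separated by NaOH stripping and re-annealing. The fluorescence ratio per cluster is summed target-cycle over summed buffer-cycle Cy3 intensity, averaged per switch-domain sequence; clusters outside 100-1000 RFU were removed.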
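Also: ATP exposure 15 min at 22 °C before imaging.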

| Sequence | switch fluorescence ratio |
| --- | --- |
| GTTCCTAGAG | 1.03 |
| GTTCCTCATC | 1.12 |
| GTTCCTGGGC | 1.02 |
| GTTCCTGTTC | 0.995 |
| GTTCCTTCGG | 1.12 |
| GTTCGAGGCT | 1.05 |
| GTTCGCATC | 1.92 |
| GTTCGCTATT | 1.07 |
| GTTCGTAGAT | 1.01 |
| GTTCGTTCTT | 1.01 |
| GTTCTAGAGA | 0.975 |
| GTTCTAGCAT | 1.02 |
| GTTCTAGTCA | 1.01 |
| GTTCTATTGT | 1.01 |
| GTTCTGAACA | 0.902 |
| GTTGAAGACA | 0.982 |
| GTTGAATCGC | 0.998 |
| GTTGACGCCG | 1.04 |
| GTTGAGATCT | 1.02 |
| GTTGATTCGA | 0.977 |
| GTTGATTGGA | 1.02 |
| GTTGCAAGGG | 1.01 |
| GTTGCAGGTA | 0.986 |
| GTTGCATTGA | 0.982 |
| GTTGCGAAGA | 1.03 |
| GTTGCGAGTA | 1.02 |

| Sequence | switch fluorescence ratio |
| --- | --- |
| GTTGCGCGGT | 0.963 |
| GTTGCTAGTT | 0.995 |
| GTTGCTTCCC | 1.12 |
| GTTGCTTTAG | 0.974 |
| GTTGGAACTC | 1 |
| GTTGGACGGG | 1.02 |
| GTTGGGTAGA | 1.02 |
| GTTGGTACAA | 1.01 |
| GTTGGTAG | 0.996 |
| GTTGGTAGAT | 0.996 |
| GTTGGTCGAT | 1.01 |
| GTTGTAAGCG | 1 |
| GTTGTCACTT | 0.962 |
| GTTGTGTGAA | 0.958 |
| GTTGTGTTGG | 1.01 |
| GTTGTTAGC | 1.01 |
| GTTGTTAGTG | 0.965 |
| GTTTAAAGTT | 1.01 |
| GTTTAAATTT | 0.989 |
| GTTTAAGACG | 0.981 |
| GTTTAAGGCG | 0.993 |
| GTTTAAGTGA | 0.99 |
| GTTTAGCCTA | 1.03 |
| GTTTATAGCG | 1.03 |
| GTTTATATCG | 0.972 |
| GTTTATCGTT | 0.954 |

| Sequence | switch fluorescence ratio |
| --- | --- |
| GTTTATGTTT | 0.958 |
| GTTTCAAGGG | 0.938 |
| GTTTCACTTT | 0.978 |
| GTTTCAGAGT | 1.02 |
| GTTTCCAATG | 1.03 |
| GTTTCCAGTA | 1.02 |
| GTTTCCCTTT | 1.03 |
| GTTTCGAAAG | 0.965 |
| GTTTCGATAT | 1.02 |
| GTTTCTCGGG | 1.01 |
| GTTTCTTAGG | 0.977 |
| GTTTGAACGA | 0.937 |
| GTTTGAAGG | 1.01 |
| GTTTGACCTG | 1 |
| GTTTGAGGTC | 1 |
| GTTTGATTCA | 0.999 |
| GTTTGCCATC | 1.04 |
| GTTTGGGCAA | 1.04 |
| GTTTGGTGTC | 1.07 |
| GTTTGGTTTG | 1.01 |
| GTTTGTAAA | 0.989 |
| GTTTGTAGAC | 1.08 |
| GTTTGTATGC | 0.955 |
| GTTTTAACGC | 1.02 |
| GTTTTAAGC | 0.929 |
| GTTTTACCTT | 1.11 |

| Sequence | switch fluorescence ratio |
| --- | --- |
| GTTTTCCGAT | 1.02 |
| GTTTTGGACT | 1 |
| GTTTTGTTAA | 0.98 |
| GTTTTTGC | 0.909 |
| TAAAAAATTA | 0.955 |
| TAAAAACAGT | 1.32 |
| TAAAAAGTTG | 1.12 |
| TAAAACAGAA | 0.995 |
| TAAAAGACA | 0.997 |
| TAAAAGGTTA | 1.01 |
| TAAAAGTTGA | 0.97 |
| TAAAATGAAG | 0.998 |
| TAAAATGTAA | 1.01 |
| TAAAATTTTG | 1.04 |
| TAAACAACGG | 1.06 |
| TAAACAAGGC | 1.02 |
| TAAACAGGTG | 1.95 |
| TAAACCGAGG | 0.981 |
| TAAACGATAT | 1.04 |
| TAAACTCAGA | 1.03 |
| TAAACTTGTT | 1 |
| TAAAGAGAGT | 1.08 |
| TAAAGAGCTA | 1.02 |
